Laboratory results taken from the RNAGym collection of RNA variant scans (doi:10.1093/nar/gkz1192).
The source gives no read counts; variants with many changes may rest on few reads.

B1: CPEB3 Ribozyme (parent)
chain: UAACAGGGGGCCACAGCAGAAGCGUUCACGUCGCAGCCCCUGUCAGAUUCUGGUGAAUCUGCGAAUUCUGCUGUAUAUCUC

Variants of: B1
Experiment: self-cleavage, relative activity (ratio to wild type); higher = more cleavage; in vitro, sequencing
Outline: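 For each CPEB3 ribozyme variant, relative activity is its cleaved/total read fraction divided by the unmutated ribozyme's. Barcoded error-prone PCR libraries were transcribed by T7 RNA polymerase (5 hours, 37°C) and held in DNase I for 15 min before an EDTA stop, with cleavage occurring throughout. Template-switching reverse transcription and Illumina sequencing were used to read the RNAs. A 5-read minimum applied, and results are the mean of three batches.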

Row | Variant | self-cleavage
1 | UAACAGGGGGCCCCAGCAGAAGCGUUCACGUCGCAGCCCCCGUCGGGUUCUGGUGUAUCUGCGAAUUCUGCUGUAUACCUC [A13C U41C A45G A47G A56U U78C] | 0.24
2 | UAACAGGGGGCCCCAGCAGAAGCGUUCACGUCGCAGCCCCUGACAGAUUCUGGUGAAUCUGCGGAUUCUGCUGUAGAUCUC [A13C U43A A64G U76G] | 0.88
3 | UAACAGGGGGCCCCAGCAGAAGCGUUCACGUCGCAGCCCCUGACAGAUUCUGGUGAAUCUGCGAAUUCUGCUGUAUUUCUC [A13C U43A A77U] | 1.06
4 | UAACAGGGGGCCCCAGCAGAAGCGUUCACGUCGCAGCCCCUGACAGAUUCUGGAGAAUCUGCGAAUUCUGCUGUAUAUCUC [A13C U43A U54A] | 1.04
5 | UAACAGGGGGCCCCAGCAGAAGCGUUCACGUCGCAGCCCCUGCCAGUUUCUGGGGAAUCUGCGAAUUCUGCUGUAUAUCUC [A13C U43C A47U U54G] | 0.14
6 | UAACAGGGGGCCCCAGCAGAAGCGUUCACGUCGCAGCCCCUGCCAGAUUCUGGCGAAUCUGCGAAUUCUGCUGUACAUCUC [A13C U43C U54C U76C] | 0.28
7 | UAACAGGGGGCCCCAGCAGAAGCGUUCACGUCGCAGCCCCUGUCAGACUCUGGUGAAUCUGCGCAUUCUGCUGUAUAUCUC [A13C U48C A64C] | 0.14
8 | UAACAGGGGGCCCCAGCAGAAGCGUUCACGUCGCAGCCCCUGUCAGAUGCUGGUGAAUCUGCGAAUUCUGCUGUAUACCUC [A13C U49G U78C] | 0.14
9 | UAACAGGGGGCCCCAGCAGAAGCGUUCACGUCGCAGCCCCUGUCAGAUUCCGGUGAAUCUGCGAAUCCAGCUGUAUAUCUC [A13C U51C U67C U69A] | 0.2
10 | UAACAGGGGGCCGCGGCAGGAGCGUACACGUCGCAUCCCCAGUCAGAUUCUGGUGAAUCUGCGAAUUCUGCUAUAUAUCUC [A13G A15G A20G U26A G36U U41A G73A] | 0.05
11 | UAACAGGGGGCCGCGGCAGAAGCGUUCACGUCGCAGCCCCUGUCAGAUUCUGGUGAAUCUGCGAAUUCUGCUGUAUUUCUC [A13G A15G A77U] | 0.53
12 | UAACAGGGGGCCGCGGCAGAAGCGUUCAAGUCGCAGCCCCUGUCAGAUUCUGGUGAAUCUGCGAAUUCUUCUGUAUAUCUC [A13G A15G C29A G70U] | 0.14
13 | UAACAGGGGGCCGCGGCAGAAGCGUUCACGUCGCAGCACCUGUCAGAUACUGGCGAAUCUGCGAAUUCUGCUGUAUAUAUC [A13G A15G C38A U49A U54C C79A] | 0.42
14 | UAACAGGGGGCCGCGGCAGAAGCGUUCACGUCGCAGCUCCAGUCAGAUUCUGGUGAAUCUGCGAAUUCUGCUGUAUAUCUC [A13G A15G C38U U41A] | 0.08
15 | UAACAGGGGGCCGCGGCAGAAGCGUUCACGUCGCAGCCCCUGUCAGAUUCUAGUGAAUCUGCGAAUUCUGCUGUACAUCUC [A13G A15G G52A U76C] | 0.18
16 | UAACAGGGGGCCGCGGCAGAAGCGUUCACGUCGCAGCCCCUGUCAGAUUCUGCUGAAUCUGCGAAUUCUGCUGUAUAUCAC [A13G A15G G53C U80A] | 0.37
17 | UAACAGGGGGCCGCGGCAGAAGCGAUCACGUCGCAGCCCCUGACAGAUCCUGGUGAAUCUGCGAAUUCUGCGGUAUAUCUC [A13G A15G U25A U43A U49C U72G] | 0.1

Row | Variant | self-cleavage
18 | UAACAGGGGGCCGCGGCAGAAGCGCUCACGUCGCAGCCCCUGUCAGAUUCUGGAGAAUCUGCGAAUUCUGCUGUAUAUCUC [A13G A15G U25C U54A] | 0.07
19 | UAACAGGGGGCCGCGGCAGAAGCGUCCACGUCACACCCCCUGUCAGAUUCUGGUGAAUCUCCGAAUCCUGCUGUAUAUCUC [A13G A15G U26C G33A G36C G61C U67C] | 0.05
20 | UAACAGGGGGCCGCGGCAGAAGCGUUCACGUCGCAGCCCCUGACAGAUUCUGGUGAAUCUGCGAAUUCUGCUGUAUAUCUC [A13G A15G U43A] | 0.37
21 | UAACAGGGGGCCGCUGCGGAAGCGUUCACGUCGCAGCCCCAGUCAGAUUCUGGCGAAUCUGCGAAUCCUGCUGUAUAUCUC [A13G A15U A18G U41A U54C U67C] | 0
22 | UAACAGGGGGCCGCUGCAGAGGCGUUCACGUCGCAGCCCCUGUCGGAUUCUGGUGAAUCUGCGAAUUCUGCUGUAUACCUC [A13G A15U A21G A45G U78C] | 0.06
23 | UAACAGGGGGCCGCUGCAGAGGCGUUCACGUCGCAGCUCCUGUCAGAUUCUGGUGCAUCUGCGAAUUCUGCUGUAUAUCUC [A13G A15U A21G C38U A56C] | 0.07
24 | UAACAGGGGGCCGCUGCAGAAGCGUUCGCGUCGCGGCCCACGUCAGGUUCUGGUGAAUCUGCGAAUUCUGCUGUAUAUCUC [A13G A15U A28G A35G C40A U41C A47G] | 0
25 | UAACAGGGGGCCGCUGCAGAAGUGUCCACGUCGCAGCCCCUGUCAGAUUCUGGUGAAUCUGCGAGUUCUGCUGUAUAUCUC [A13G A15U C23U U26C A65G] | 0.23
26 | UAACAGGGGGCCGCUGCAGAAGCGUUCACGUCACAGCCCCUGUGAGAUUCUGGUGGAUCUGCGAAUUCUGCUGUAUAUCUC [A13G A15U G33A C44G A56G] | 0.13
27 | UAACAGGGGGCCGCUGCAGAAGCGAUCACGUCGCAGCCCCUGUCAGAUUCUGGUGAAUCUGCGAGUUCUGCUGUAUAUCUC [A13G A15U U25A A65G] | 0.06
28 | UAACAGGGGGCCGCUGCAGAAGCGUACACGUCGGAGCCCCUGUCAGAUUCUGGUGAAUCUGCGAAUUCUGCUGUAUAUCUC [A13G A15U U26A C34G] | 0.42
29 | UAACAGGGGGCCGCAGCCGAAGCGUUCACGUCGCUGCCCCUGUCAGAUUCUGGUGAAUCUGCGAAGUCUGCUGUAUUUCUC [A13G A18C A35U U66G A77U] | 0.19
30 | UAACAGGGGGCCGCAGCCGAAGCGUUCACGUCGCUGCCCCUGUCAGAUUCUGGUGAAUCUGCGAAUUCUGCCGUAUAUCUC [A13G A18C A35U U72C] | 0.21
31 | UAACAGGGGGCCGCAGCCGAAGCGUCCACGUCGCAGCCCCUGUCAGAUUCUGGUGAAUCUGCGAAUUCUGCUGUAUAUCUC [A13G A18C U26C] | 0.06
32 | UAACAGGGGGCCGCAGCGGGAGCGUUCACGUCGCAGCCCCCGCCAGAUUCUGGUGAAUCUGCGAGUUCUGCUGUAUAUCAC [A13G A18G A20G U41C U43C A65G U80A] | 0
33 | UAACAGGGGGCCGCAGCGGAAGCGUUCACGUCGCGGCCCCUGUCAGAUUCUUGUGAAUCUGCGAAUUCUGCUGUAUAUCUC [A13G A18G A35G G52U] | 0.36
34 | UAACAGGGGGCCGCAGCGGAAGCGUUCACGUCGCUACCCCUGUCAGAUUCUGGUGAAUCUGCGAAUCCUGCUGUAUAUCUC [A13G A18G A35U G36A U67C] | 0.12
